# Measurements from the supplement of paper PMC4604168 (melanoma cell lines).
# The other results are listed elsewhere or left out. Repeats are few or missing, and single values can be far off.
# System: G361
# Experiment: cell count relative to DMSO control; melanoma cells; higher = more viable cells
# Settings: library dose: low library concentration; 72 h
# 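Also: cell number obtained by counting DAPI-stained nuclei in high-throughput microscope images with image analysis software, screen run in 1,536-well plates.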
row,Compound,cell count [%]
1,"O=C(O)c1ccc(-c2c[nH]c3ncc(-c4ccccc4)cc23)cc1C1CCCC1 + COc1ccc2c(c1)CCC1C2CCC2(C)C(NCCCCCCN3C(=O)C=CC3=O)CCC12 [U73122] (first compound 0.16 µM, partner dose 0.4 µM)",96.1
2,"O=c1[nH]nc(Sc2ncc([N+](=O)[O-])s2)n1-c1ccc2c(c1)OCCO2 + Nc1ccn([C@@H]2O[C@H](CO)[C@@H](O)C2(F)F)c(=O)n1 [gemcitabine] (first compound 0.2 µM, partner dose 0.0004 µM)",83.3
3,"CC1(C)NC(=O)N(c2ccc([N+](=O)[O-])c(C(F)(F)F)c2)C1=O [nilutamide] + CCCCCCCCCCCC1=C(O)C(=O)C=C(O)C1=O [Embelin] (first compound 1 µM, partner dose 1.2 µM)",108
4,"O=c1[nH]nc(Sc2ncc([N+](=O)[O-])s2)n1-c1ccc2c(c1)OCCO2 + CNC(=O)c1cc(Oc2ccc(NC(=O)Nc3ccc(Cl)c(C(F)(F)F)c3)cc2)ccn1 [sorafenib] (first compound 0.2 µM, partner dose 0.4 µM)",90
5,"Cn1cncc1[C@@](N)(c1ccc(Cl)cc1)c1ccc2c(c1)c(-c1cccc(Cl)c1)cc(=O)n2C [tipifarnib] + COC(=O)c1sccc1S(=O)(=O)Nc1ccc(Nc2ccccc2)cc1OC [GSK0660] (first compound 0.01 µM, partner dose 1 µM)",92.1
6,"O=c1[nH]nc(Sc2ncc([N+](=O)[O-])s2)n1-c1ccc2c(c1)OCCO2 + Cc1cn(-c2cc(NC(=O)c3ccc(C)c(Nc4nccc(-c5cccnc5)n4)c3)cc(C(F)(F)F)c2)cn1 [nilotinib] (first compound 0.2 µM, partner dose 0.2 µM)",103
7,"O=c1[nH]nc(Sc2ncc([N+](=O)[O-])s2)n1-c1ccc2c(c1)OCCO2 + CC(C)C[C@H](NC(=O)[C@H](Cc1ccccc1)NC(=O)c1cnccn1)B(O)O [Bortezomib] (first compound 0.2 µM, partner dose 0.001 µM)",77.4
8,"O=c1[nH]nc(Sc2ncc([N+](=O)[O-])s2)n1-c1ccc2c(c1)OCCO2 + Cc1nc(Nc2ncc(C(=O)Nc3c(C)cccc3Cl)s2)cc(N2CCN(CCO)CC2)n1 [dasatanib] (first compound 0.2 µM, partner dose 0.004 µM)",104
9,"O=C(O)c1ccc(-c2c[nH]c3ncc(-c4ccccc4)cc23)cc1C1CCCC1 + Oc1nc(-c2ccc(C(F)(F)F)cc2)nc2c1CSCC2 [XAV939] (first compound 0.16 µM, partner dose 2 µM)",82.5
10,"CC1(C)NC(=O)N(c2ccc([N+](=O)[O-])c(C(F)(F)F)c2)C1=O [nilutamide] + CCN(CC)CCCCNc1ncc2cc(-c3cc(OC)cc(OC)c3)c(NC(=O)NC(C)(C)C)nc2n1 [PD173074] (first compound 1 µM, partner dose 0.1 µM)",106
11,"Cn1cncc1[C@@](N)(c1ccc(Cl)cc1)c1ccc2c(c1)c(-c1cccc(Cl)c1)cc(=O)n2C [tipifarnib] + c1cc(-c2cnn3cc(-c4ccc(OCCN5CCCCC5)cc4)cnc23)ccn1 [Dorsomorphin] (first compound 0.01 µM, partner dose 0.4 µM)",86.6
12,"C[C@@H]1CCN(C(=O)CC#N)C[C@@H]1N(C)c1ncnc2[nH]ccc12 + COc1cc(N2CCC(N3CCN(C)CC3)CC2)ccc1Nc1ncc(Cl)c(Nc2ccccc2S(=O)(=O)C(C)C)n1 [NVP-TAE684] (first compound 1 µM, partner dose 0.08 µM)",86
13,"O=C(O)c1ccc(-c2c[nH]c3ncc(-c4ccccc4)cc23)cc1C1CCCC1 + Oc1cc(-c2nc(-c3ccccc3)[nH]c2-c2ccncc2)ccc1Cl [L779450] (first compound 0.16 µM, partner dose 0.2 µM)",89.5
14,"COc1cc(Nc2ncc(F)c(Nc3ccc4c(n3)NC(=O)C(C)(C)O4)n2)cc(OC)c1OC [Tamatinib] + COc1ccc2c(c1)CCC1C2CCC2(C)C(NCCCCCCN3C(=O)C=CC3=O)CCC12 [U73122] (first compound 0.4 µM, partner dose 0.4 µM)",86.8
15,"C[C@@H]1CCN(C(=O)CC#N)C[C@@H]1N(C)c1ncnc2[nH]ccc12 + O=S(=O)(c1ccccc1)N(CC(F)(F)F)c1ccc(C(O)(C(F)(F)F)C(F)(F)F)cc1 [T0901317] (first compound 1 µM, partner dose 1.4 µM)",92.3
16,"O=c1[nH]nc(Sc2ncc([N+](=O)[O-])s2)n1-c1ccc2c(c1)OCCO2 + COc1ccc(C2=N[C@@H](c3ccc(Cl)cc3)[C@@H](c3ccc(Cl)cc3)N2C(=O)N2CCNC(=O)C2)c(OC(C)C)c1 [Nutlin-3] (first compound 0.2 µM, partner dose 0.1 µM)",100
17,"CC1(C)NC(=O)N(c2ccc([N+](=O)[O-])c(C(F)(F)F)c2)C1=O [nilutamide] + COc1cc(N2CCC(N3CCN(C)CC3)CC2)ccc1Nc1ncc(Cl)c(Nc2ccccc2S(=O)(=O)C(C)C)n1 [NVP-TAE684] (first compound 1 µM, partner dose 0.08 µM)",94.7
